According to PubChem BioAssay AID1508624 (National Center for Advancing Translational Sciences (NCATS), 2021):
Screen size: about 48,000 compounds; about 120 (0.25%) were called active. Inconclusive results (about 4%) are left out. Calls come from the whole dose curve; as a rule, active = well fitted activation curve with a large enough effect; inconclusive = small, poorly fitted or top-dose-only effect, or another doubt; inactive = no such curve, though single readings can be large or run the other way. This is one part of the list.

Assay: Primary qHTS for Identification of Small Molecule Activators of Huntingtin-Antisense Promoter Activity; note: nearly all actives have a fitted effect of over 55% in size
Conditions: HEK293 HTT-AS promoter firefly luciferase reporter, 24 h; series mostly up to 57.5 µM; activity change, positive = activation: at the top concentration
Procedure, shortened: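 Firefly luciferase signal from promoter-reporter HEK293 cells was scaled between vehicle (0%) and zero RLU (-100%). Compounds were tested at final concentrations of up to 57.5 uM over 24 h at 37 degrees C. PTC124 at 50 uM final served as control inhibitor.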

Activity change, positive = activation, inactive:
Cc1ccc2c(=O)cc(C(=O)Nc3c(C(=O)c4ccccc4)oc4ccccc34)oc2c1C -7.8%
COC(=O)[C@H](Cc1ccccc1)NC(=O)[C@@H](N)CC(=O)O
CCN1C(=O)c2ccccc2Sc2ccc(NC(=O)Cc3ccc(OC)cc3)cc21 -8.71%
COc1ccc(-c2cc(-c3ccccc3)nc3c2COc2ccccc2-3)cc1 -12.4%
CCCn1cc(S(=O)(=O)c2cc(C)ccc2C)c(=O)c2cc(F)c(N3CCCCCC3)cc21 -21.8%
CC(C)CC(=O)Nc1nnc2n1CCS2 0.501%
CCc1ccccc1N(c1nc(-c2ccc(OC)c(OC)c2)no1)c1nc(-c2ccc(OC)c(OC)c2)no1 -14.6%
COc1cccc(NC(=O)C(=O)NCCc2csc3nc(-c4ccccc4C)nn23)c1 1.94%
CC1=C(c2ccc(C)c(C)c2)S(=O)(=O)N=C1N1CCC(C(=O)NCc2ccc(Cl)cc2)CC1 -23.6%
O=C(NCCC1=CCCCC1)c1ccc2c(c1)N(Cc1ccc(Cl)cc1)C(=O)c1ccccc1S2=O (stereo not given) -29.8%
N#Cc1c(N(CC(=O)O)CC(=O)O)sc(C(=O)O)c1CC(=O)O -13.9%
COc1ccc(-n2c(=O)c3c(c4cc(OC)ccc4n3C)n(C)c2=O)cc1 -12.8%
CCOC(=O)c1cccc(NC(=O)c2cnc(N3CCCCC3)c3ccccc23)c1 -38.4%
CCOc1ccc(NC(=O)Cn2cc(C(=O)c3ccc(CC)cc3)c(=O)c3ccc(C)nc32)cc1 -13.6%
Cc1ccc(-n2c(=O)c3cccnc3n2CC(=O)NCc2ccc(F)cc2)cc1C -28.5%
Cc1ccc(CNC(=O)CN2CCCN(Cc3ccc(F)cc3)S2(=O)=O)cc1 -8.73%
CCOC(=O)C1=C(C)NC(=S)NC1c1cccc(O)c1 (stereo not given) -29.2%
CCN(CC)S(=O)(=O)c1ccc2c(c1)N(CC(=O)Nc1c(C)cc(C)cc1C)C(=O)C1CCCN21 (stereo not given) -9.69%
COc1ccc(NC(=O)CSc2nccn2Cc2ccco2)cc1OC 30.6%
O=C(COc1ccccc1F)Nc1ccc(Cl)c(-c2nc3ccccc3[nH]2)c1 -11.7%
Cc1cc(C)c(/C=C/c2onc(C)c2S(=O)(=O)N2CCC(C(=O)Nc3ccc(Cl)c(C(F)(F)F)c3)CC2)c(C)c1 3.53%
CCOC(=O)c1cc(NC(=O)c2ccc(OC)cc2)c(=O)n2c1oc1ccc(Cl)cc12 1.3%
CCn1c(CNC(=O)C23CC4CC(CC(C4)C2)C3)nnc1SCC(=O)Nc1ccc(F)cc1 -30.2%
CC1Cc2ccccc2N1C(=O)CSc1nnc(-c2cccc(Cl)c2)o1 (stereo not given) -4.98%
O=c1[nH]c2ccc(NCc3ccccc3F)cc2[nH]1 27.8%
O=C(CCc1ccccc1)NCc1ccc2c(c1)CCN2C(=O)c1ccc(Cl)cc1 0.717%
CCOc1ccc(CCNC(=O)c2cc3c(=O)n(C)c4ccccc4c3n2C)cc1 -20.2%
CCc1cccc(NC(=O)CC2Oc3ccc(C)cc3NC2=O)c1 (stereo not given) -16.4%
Cc1ccc(NC(=O)CC2Sc3ccccc3NC2=O)c(Br)c1 (stereo not given) -38%
O=C(NCCS(=O)(=O)N1CCN(c2cccc(Cl)c2)CC1)c1cc(=O)c2ccccc2o1 -8.51%
CCC(=O)N1CCc2cc(S(=O)(=O)NCCC(=O)Nc3ccc(OC)c(OC)c3)ccc21 5.32%
COc1ccc(NC(=O)CSc2nnc3c(C)cc4ccccc4n23)cc1 1.05%
COc1cc(-c2nnn(CC(=O)NCc3ccccc3)n2)cc(OC)c1OC -17.2%
Cc1cnc2c(c1SCC(=O)NCc1ccc(F)cc1)c(=O)n(C)c(=O)n2C -9.01%
Cc1cccc(N2CCN(c3ncnc4c3c(-c3ccccc3)cn4-c3ccccc3)CC2C)c1 (stereo not given) -18%
CCOC(=O)c1cnc2ccccc2c1Nc1ccc(N2CCOCC2)cc1 13.6%
COc1ccccc1NC(=O)c1nc(SCc2ccc(F)cc2)ncc1Cl -2.57%
CCc1ccc(N2CCn3c2nc2c3c(=O)n(CCc3ccccc3)c(=O)n2C)cc1 -16.9%
Cc1cccc(Cn2c(=O)n(-c3ccc(Cl)c(Cl)c3)c(=O)c3c(C)c(C)sc32)c1 9.82%
Cc1ccc2nc(NC(=O)CSc3nccn3Cc3ccccc3)sc2c1 -27.3%
CCOCCc1nnc(NC(=O)C(=O)c2cc(C)n(-c3cccc(Cl)c3)c2C)s1 10.1%
Cc1ccc(N(CC(=O)N2CCN(c3cc(Cl)ccc3C)CC2)S(=O)(=O)c2c(C)noc2C)cc1 -20.8%
Clc1ccc(-c2nc3ccccn3c2Nc2ccc3c(c2)OCCO3)s1 6.53%
COc1ccc(NC(=O)c2sc3nc(C)c(C(=O)Nc4ccc(C)cc4C)c(-c4cccs4)c3c2N)cc1 -20%
CCOc1ccc(NC(=O)C(=O)NCCc2csc(-c3ccc(C)cc3)n2)cc1 -7.33%
Cc1noc2ncnc(NCc3ccccc3Cl)c12 -45.4%
COc1ccc(OC)c(NC(=O)c2sc3nc4c(cc3c2N)CCCCCC4)c1 -32.9%
Cc1ccc(C)c(N2CCN(C(c3ccc(F)cc3)c3nnc(-c4ccccc4)o3)CC2)c1 (stereo not given) -13.1%
CCN(Cc1ccccc1)C(=O)Cn1c(=O)oc2cc(S(=O)(=O)N3CCCCCC3)ccc21 -26.3%
Cc1ccccc1CSc1cn(CC(=O)N2CCCC2)c2ccccc12 -11.2%
COc1ccc(-c2cc(C(F)(F)F)nc(NCCc3ccccc3)n2)cc1 9.34%
COC(=O)c1c(SCC(=O)Nc2cc(F)ccc2F)[nH]c2ccc(C)cc2c1=O 18.1%
Cc1c(-c2ccc(Cl)cc2)c(=O)oc2c(CN3CCOCC3)c(O)ccc12 -11.1%
O=C(NCCc1ccccc1)c1cc2sccc2n1Cc1ccc(F)cc1 -13.6%
COC(=O)c1cccc(CN2C(=O)SC(Nc3ccc(Br)cc3)C2=O)c1 (stereo not given) -20.5%
Cc1ccc(NC(=O)CSc2nc3ccc(NC(=O)c4ccco4)cc3s2)c(C)c1 -27.4%
CSc1cccc(NC(=O)C(c2ccccc2)N2Cc3ccccc3C2=O)c1 (stereo not given) -11.8%
CNC(=O)c1c(NC(=O)c2ccc(S(=O)(=O)N3CCCC(C)C3)cc2)sc2c1CCC2 (stereo not given) -14.2%
CC(C)(C)c1ccc(OCC(=O)NC(Cc2c[nH]c3ccccc23)C(=O)O)cc1 (stereo not given) -10.4%
CCCCn1nc(NC(=O)c2cccc(Cl)c2)c2cc3ccc(C)cc3nc21 3.22%
CC(=O)Nc1ccc(NS(=O)(=O)c2cc3c4c(c2)CC(=O)N4CCC3)cc1 -6.2%
COc1cc(C(=O)NCCS(=O)(=O)N2CCN(c3ccccc3)CC2)cc(OC)c1OC -3.91%
CN[C@H]1CC[C@@H](c2ccc(Cl)c(Cl)c2)c2ccccc21 -38.2%
Cn1cc(S(=O)(=O)c2ccc(Cl)cc2)c(=O)c2cc(F)c(N3CCOCC3)cc21 -23.9%
COc1ccc(-c2cc3nc(C)c(CCC(=O)N4CCN(c5cc(C)ccc5C)CC4)c(C)n3n2)c(OC)c1 -21.7%
CCOc1ccc(NC(=O)CN2CCN(CC(=O)Nc3ccc(OC)cc3)CC2)cc1 -2.74%
COc1ccc(N2CCN(S(=O)(=O)CCNC(=O)c3ccc(OC(C)C)cc3)CC2)cc1 -0.115%
COc1ccccc1/C=C/c1nc(C#N)c(N2CCN(c3ccccc3)CC2)o1 -0.226%
CN(C(=O)CSc1nc2ccc(NC(=O)COc3ccccc3Cl)cc2s1)c1ccccc1 -6.26%
Cc1ccc(Nc2c(-c3ccccc3O)nc3cc(C)ccn23)cc1 -8.08%
COc1ccccc1N1CCN(C(=O)C2CCCN(S(=O)(=O)c3ccc4c(c3)oc(=O)n4C)C2)CC1 (stereo not given) -40.7%
Cc1ccc(C)c(NC(=O)Cn2cnc3nc4c(cc3c2=O)CCCC4)c1 0.0509%
CCOC(=O)c1cccc(NC(=O)c2ccc3snnc3c2)c1 -3.12%
CCc1ccc(-n2c(N3CCN(c4cccc(C)c4C)CC3)nc3ccccc3c2=O)cc1 -19%
Cc1ccc(Nc2nc(N)nc(N)c2S(=O)(=O)c2ccccc2)cc1 -28.7%
CC1CC(=O)NN=C1c1ccc(NCC(C)(C)NCC(O)COc2cc(Cl)ccc2C#N)cc1 (stereo not given) -6.83%
COC(=O)c1sccc1S(=O)(=O)N(CC(=O)NCc1ccccc1)c1ccc(C)cc1 -16.5%
COc1ccccc1C(=O)Nc1nc(-c2ccc(Br)cc2)ns1 -6.05%
Cc1nc2ccn(Cc3cccnc3)c(=O)c2cc1C(=O)N1CCN(c2ccccc2)CC1 -2.65%
COC(=O)C1CCN(C(c2ccccc2Cl)c2sc3nc(-c4ccco4)nn3c2O)CC1 (stereo not given) 8.63%
CCOC(=O)CN1C(C(=O)c2ccccc2)=C(OC(=O)c2ccccc2)c2ccccc2S1(=O)=O -9.7%
Cc1ccc(NC(=O)C2CCCN(S(=O)(=O)c3ccc(F)cc3)C2)cc1 (stereo not given) -12%
CCOC(=O)CSc1nnc2n(-c3ccccc3)c(=O)c3c4c(sc3n12)COC(C(C)C)C4 (stereo not given) 1.58%
CCCCN(CC)CCNC(=O)C1CCN(c2nnc(C)c3c(C)n(-c4ccc(C)cc4)nc23)CC1 -12.6%
Cc1cc2c(cc3c(=O)n(CC(=O)NCc4ccccc4Br)ncn32)s1 -0.638%
CCc1c(C)nc2nncn2c1NCc1ccc(OC)cc1 -34.9%
Cc1ccc(Cc2c(C)nc3c(-c4ccccc4)c(C)[nH]n3c2=O)cc1 -41.9%
Cc1ccc(-n2nc(C)c3c(C(=O)O)cc(C)nc32)cc1 -4.64%
Oc1ccccc1-c1nnco1 2.74%
CCN(CC)c1ccc(NS(=O)(=O)c2ccc(-c3coc(C)n3)cc2)c(C)c1 -30.5%
CCN(CC)c1cc(C)c2cc(NC(=O)/C=C/c3ccccc3OC(C)C)ccc2n1 -17.3%
Cc1ccc(Oc2nc3ccccn3c(=O)c2/C=C(\C#N)c2nc3ccccc3s2)c(C)c1 1.61% [at 11.5 µM, percent change from vehicle, -100% = no light]
Cc1cc(C)c2c(=O)c3c(oc2c1)C(=O)N(Cc1ccco1)C3c1ccc(F)cc1 (stereo not given) -9.6%
CC(=O)N1CCc2c(sc3c2c(=O)n(-c2cccc(Cl)c2)c(=O)n3Cc2ccc(F)cc2Cl)C1 -28.5%
Cc1nn(C)c2c1c(C(F)(F)F)cc(=O)n2CC(=O)N1CCN(c2ccccc2F)CC1 2.65%
